Laboratory results from PubChem BioAssay AID588591 (National Center for Advancing Translational Sciences (NCATS), 2011).
The whole screen tested about 390,000 compounds, of which about 4,700 (1.2%) were called active. This list was built around the results that the source calls inconclusive (neither active nor inactive); the mix of calls is not that of the screen. The call rests on the fitted dose curve; in most records, active means well fitted inhibition curve with a large enough effect; inconclusive means small, poorly fitted or top-dose-only effect, or another doubt; inactive means no such curve, though single readings can be large or run the other way. Where the call is inconclusive, the potency comes from a doubtful curve fit.

These compounds were tested against DNA polymerase eta (Homo sapiens) (UniProt Q9Y253) (assay: qHTS for Inhibitors of Polymerase Eta). Details: recombinant Pol eta, fluorescent DNA replication assay; series mostly up to 114 µM.
How it was run: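 Fluorescent replication assay: 50 nM final substrate added after a 15 min room-temperature compound preincubation with 10 nM enzyme. Signal taken at 0 min and again at 10 min.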
Potency means the concentration at half of the fitted maximal effect; tags describe the fitted curve by direction and shape.

Sequence of UniProt Q9Y253 (Q9Y253 whole entry, looked up): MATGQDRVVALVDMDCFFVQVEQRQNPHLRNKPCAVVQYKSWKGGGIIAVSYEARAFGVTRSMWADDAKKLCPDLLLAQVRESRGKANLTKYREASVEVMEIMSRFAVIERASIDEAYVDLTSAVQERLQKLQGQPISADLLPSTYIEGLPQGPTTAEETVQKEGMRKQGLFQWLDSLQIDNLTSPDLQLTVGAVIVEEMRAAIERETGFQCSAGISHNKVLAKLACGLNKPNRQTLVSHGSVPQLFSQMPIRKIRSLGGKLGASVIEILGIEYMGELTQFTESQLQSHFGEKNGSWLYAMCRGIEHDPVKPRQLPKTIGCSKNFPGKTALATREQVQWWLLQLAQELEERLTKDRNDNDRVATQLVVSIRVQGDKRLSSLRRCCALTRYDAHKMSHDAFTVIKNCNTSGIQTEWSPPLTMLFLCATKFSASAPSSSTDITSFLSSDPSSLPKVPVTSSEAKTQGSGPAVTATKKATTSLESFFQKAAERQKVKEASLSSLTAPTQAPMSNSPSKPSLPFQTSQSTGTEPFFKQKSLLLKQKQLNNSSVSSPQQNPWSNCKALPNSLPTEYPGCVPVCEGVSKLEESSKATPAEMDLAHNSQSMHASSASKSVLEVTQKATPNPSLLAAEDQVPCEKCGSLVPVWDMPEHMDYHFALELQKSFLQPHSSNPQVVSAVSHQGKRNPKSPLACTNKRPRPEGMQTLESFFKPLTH

Row | SMILES | Potency
1 | O=S(=O)(CCc1nnc(-c2ccc(Br)cc2)o1)c1ccc(Cl)cc1 | inconclusive: 89.1 µM [inhibitor, partial curve, poor fit]
2 | Cc1sc2nc(CN3CCCC3)nc(NCc3ccncc3)c2c1C | inactive
3 | O=C(c1cc2ccccc2o1)N1CCN=C1SCc1cccc(F)c1 | inactive
4 | O=C(O)c1ccc(Nc2nc3ccccc3nc2NS(=O)(=O)c2ccc(F)cc2)cc1 | inconclusive: 39.8 µM [inhibitor, partial curve, poor fit]
5 | Cc1ccc(NC2CCCN(C(=O)c3ccc4[nH]ccc4c3)C2)cc1C (stereo not drawn) | inconclusive: 79.4 µM [inhibitor, partial curve, poor fit]
6 | COc1ccccc1N=Nc1ccc(O)c2ncccc12 | inconclusive: 14.1 µM [inhibitor, partial curve, poor fit]
7 | CCOC(=O)Cc1nnc(NC(=O)COc2ccc(C)cc2)s1 | inconclusive: 20 µM [inhibitor, partial curve, poor fit]
8 | COc1cc(C2C3=C(Nc4nc(N)[nH]c(=O)c42)c2ccccc2C3=O)ccc1O (stereo not drawn) | active: 22.4 µM
9 | CSc1nnc(C)c(/C=C/Nc2ccc(F)cc2F)n1 | inconclusive: 89.1 µM [inhibitor, single point]
10 | COc1ccc(-c2nc3ccccc3s2)cc1NC(=O)c1cccc(F)c1 | inactive
11 | Cc1ccsc1C(=O)OCc1cc(=O)n2ccsc2n1 | inconclusive: 22.4 µM [inhibitor, partial curve, poor fit]
12 | COc1cccc(CNC(=O)c2ccc3nc(CCc4ccccc4)oc3c2)c1OC | inactive
13 | Cc1ccc(S(=O)(=O)Nc2ccccc2N=Cc2ccc([N+](=O)[O-])cc2[N+](=O)[O-])cc1 | inactive
14 | Cc1cccc2cc(C(c3nnnn3C(C)(C)C)N(Cc3ccco3)CC3CCCO3)c(=O)[nH]c12 (stereo not drawn) | active: 7.94 µM
15 | Nc1ncc(N=Nc2cc(C(=O)O)ccc2Cl)s1 | active: 12.6 µM
16 | N#Cc1cc(C(=O)c2ccccc2O)cn(-c2nccs2)c1=O | active: 15.8 µM
17 | Cc1ccc(C(C(=O)NCC2CCCO2)N(Cc2ccccc2)C(=O)c2ccc(-c3ccccc3)[nH]2)o1 (stereo not drawn) | inconclusive: 50.1 µM [inhibitor, partial curve, poor fit]
18 | COc1c(O)cc2c(c1O)[C@@H]1O[C@H](CO)[C@@H](O)[C@H](O)[C@H]1OC2=O | inactive
19 | COc1cc(C(=O)Nn2c(O)c(C3=c4ccccc4=NC3=O)sc2=S)ccc1O | inconclusive: 89.1 µM [inhibitor, single point]
20 | Cc1sc2ncnc(SCC(=O)NC(=O)NCc3ccco3)c2c1C | active: 89.1 µM
21 | CC1(C)CC(=O)C2=C(C1)C(c1cn(-c3ccccc3)nc1-c1ccccc1)C(C#N)=C(N)O2 (stereo not drawn) | inconclusive: 79.4 µM [inhibitor, partial curve, poor fit]
22 | CC(C)[C@H](NC(=O)c1ccccc1)C(=O)OCC(=O)/C=C1/N(C)c2ccccc2C1(C)C | inconclusive: 100 µM [inhibitor, partial curve, poor fit]
23 | COc1ccc(CCN2C(=O)CN(C3CCCCCC3)C(=O)C2c2ccc(Cl)cc2)cc1OC (stereo not drawn) | inactive

Row | SMILES | Potency
24 | COc1cc(/C=N/NC(N)=S)ccc1OCC(=O)Nc1ccc(C)c(C)c1 | inconclusive: 17.8 µM [inhibitor, partial curve]
25 | CCOC(=O)C1c2cccc(O)c2CCN1C(C)=O (stereo not drawn) | inconclusive: 25.1 µM [inhibitor, partial curve, poor fit]
26 | CSC1=C(C#N)C(=O)NC(c2ccc(Cl)cc2)S1 (stereo not drawn) | active: 79.4 µM
27 | O=C(O)/C(=C\c1ccco1)NC(=O)c1ccc(Br)o1 | active: 20 µM
28 | O=C(O)CCc1ccc(-c2ccc(Br)cc2)n1CC(=O)O | inconclusive: 56.2 µM [inhibitor, partial curve, poor fit]
29 | CCOC(=O)c1ccc(S(=O)(=O)Nc2cc(S(=O)(=O)Nc3ccc(OC)cc3)ccc2O)cc1 | inconclusive: 31.6 µM [inhibitor, single point]
30 | Cc1ccc(-c2csc3ncnc(N4CCN(C(=O)c5ccccc5)CC4)c23)cc1 | inconclusive: 25.1 µM [inhibitor, partial curve, poor fit]
31 | O=S(=O)(N=C1C=CC(=NS(=O)(=O)c2ccccc2)c2ccccc21)c1ccccc1 | active: 50.1 µM
32 | Nc1cc2c(cc1Br)-c1c(C(=O)O)cccc1C2O (stereo not drawn) | inconclusive: 25.1 µM [inhibitor, partial curve, poor fit]
33 | COc1cc(OC)cc(OC(=O)c2ccc3c(=O)n4c(nc3c2)CCC4)c1 | active: 39.8 µM
34 | CC(=O)Nc1cccc(NC(=O)CSc2nnc(NC(=O)c3ccco3)s2)c1 | inconclusive: 35.5 µM [inhibitor, partial curve, poor fit]
35 | COc1ccc2c(Cl)c(C(=O)N/N=C/c3ccc4c(c3)OCO4)sc2c1 | inconclusive: 17.8 µM [inhibitor, partial curve, poor fit]
36 | Cc1ccccc1OCC(=O)Nc1ccccc1C(=O)OCc1cc(=O)n2nc(C3CC3)sc2n1 | inactive
37 | O=C(NNC(=O)c1ccc(NC(=O)c2ccccc2)cc1)Nc1ccccc1 | inconclusive: 35.5 µM [inhibitor, partial curve, poor fit]
38 | COc1ccc(C(=O)NCc2nnc(SCC(=O)NO)n2Cc2ccccc2)cc1 | inconclusive: 89.1 µM [inhibitor, partial curve, poor fit]
39 | O=c1cc(CSc2nnnn2-c2ccccc2)nc2nc[nH]n12 | inactive
40 | COc1cc(/C=C2/C(=N)N3C(c4ccccc4)=CSC3=NC2=O)ccc1OCC(=O)O | active: 20 µM
41 | COc1ccc(/C=N/NC(=O)c2cccc(NC(=O)c3ccccc3Cl)c2)cc1OC | inconclusive: 28.2 µM [inhibitor, partial curve, poor fit]
42 | Cc1ccc(NC(=O)CN2C(=O)c3ccccc3Sc3ccc(C(=O)N4CCOCC4)cc32)cc1C | inconclusive: 89.1 µM [inhibitor, partial curve, poor fit]
43 | COc1ccc(CCn2c(=N)c(C(=O)NCc3ccco3)cc3c(=O)n4ccccc4nc32)cc1 | inconclusive: 79.4 µM [inhibitor, partial curve]
44 | Cc1ccc(-c2csc(NC(=O)CSc3nc4ccccc4o3)n2)cc1 | inconclusive: 28.2 µM [inhibitor, partial curve, poor fit]
45 | Cc1ccc(-n2ncc3c2CC(C)(C)CC3NC(=O)CCc2ccncc2)cc1 (stereo not drawn) | inactive
46 | Cc1nc(NC(=O)c2ccco2)sc1C(=O)O | inactive

Row | SMILES | Potency
47 | COC(=O)c1c2c(nc3ccccc13)CCC2 | inactive
48 | O=C(Nc1nc(-c2ccco2)c(-c2ccco2)s1)C1CC(=O)N(c2ccc3c(c2)OCCO3)C1 (stereo not drawn) | active: 8.91 µM
49 | COCCN(C(=O)c1cc(-c2ccco2)nc2ccccc12)c1c(N)n(Cc2ccccc2)c(=O)[nH]c1=O | active: 22.4 µM
50 | CCOC(=O)N1CCN(C(=O)c2ccc(Cl)nc2)CC1 | inactive
51 | O=C(CSc1nc2ccccc2c(=O)n1CCCO)N1CCc2ccccc21 | inconclusive: 39.8 µM [inhibitor, partial curve, poor fit]
52 | CCCC(=O)Nc1nc2ccc3nc(C)sc3c2s1 | inconclusive: 28.2 µM [inhibitor, partial curve, poor fit]
53 | O=C(N/N=C/c1ccc(O)c(O)c1)c1cccc(S(=O)(=O)N2CCCC2)c1 | inconclusive: 17.8 µM [inhibitor, partial curve]
54 | Cc1noc2ncnc(NCc3ccc(Cl)cc3)c12 | inactive
55 | COc1ccc(CN2C(=O)Cc3c2nc(N)c2c(N)nc(N4CCOCC4)c(C#N)c32)cc1 | inconclusive: 15.8 µM [inhibitor, full curve, poor fit]
56 | O=C(N/N=C/c1ccco1)c1cc(-c2ccc3ccccc3c2)n[nH]1 | inconclusive: 31.6 µM [inhibitor, single point]
57 | Cc1ccc(CNC(=O)c2c[nH]n3c(=O)c(Cc4ccc(F)cc4Cl)c(C)nc23)cc1 | active: 70.8 µM
58 | CC(C)(C)C1C/C(=C/c2ccco2)C(=O)/C(=C/c2ccco2)C1 (stereo not drawn) | active: 28.2 µM
59 | Cc1nnc(NC(=O)C(C)Oc2ccc3c(C)cc(=O)oc3c2)s1 (stereo not drawn) | inconclusive: 28.2 µM [inhibitor, partial curve, poor fit]
60 | CCOc1ccccc1N(CC(=O)NC1CCCC1)S(=O)(=O)c1ccc(C)cc1 | inactive
61 | CC(=O)c1ccc(S(=O)(=O)Nc2ccc(-n3cnnn3)cc2)cc1 | active: 31.6 µM
62 | Cc1cccc(N(CC(=O)N(C)Cc2ccccc2)S(=O)(=O)c2ccccc2)c1C | inactive
63 | O=C(Cc1ccc(Cl)cc1)N/N=C/c1ccc(O)c(O)c1 | inconclusive: 20 µM [inhibitor, partial curve, poor fit]
64 | COc1ccc(C2=NN(C(=O)COC(=O)c3ccc(S(C)(=O)=O)c([N+](=O)[O-])c3)C(c3ccco3)C2)cc1 (stereo not drawn) | inconclusive: 17.8 µM [inhibitor, partial curve, poor fit]
65 | CCCOc1ccc(/C=c2\sc3nc(-c4ccco4)nn3c2=O)cc1OCC | inconclusive: 11.2 µM [inhibitor, full curve, poor fit]
66 | O=C(N/N=C/c1cccnc1)c1cccc(Cl)c1 | inactive
67 | CCOC(=O)C1C(=O)C=C(c2cccs2)CC1c1ccccc1C (stereo not drawn) | inconclusive: 79.4 µM [inhibitor, partial curve, poor fit]
68 | Cc1ccc(SCCc2cc[n+](CC(=O)c3ccccc3)cc2)cc1 | inactive
